Experimental data reported in PubChem BioAssay (NCI).
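Results reflect a 48-hour exposure of cells in 96-well plates to compound at five concentrations. The concentration for 50% growth inhibition is given as GI50.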 Some entries of the source have several records that differ or are many. The list is limited to them. An entry can have further records. For part of these data: Results that share an entry are repeats in other runs, samples, wells, individuals or studies. What stands in brackets tells the records apart. The letters are not those of the source and start again with each entry.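 TGI: concentration producing complete growth inhibition.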 For part of these data: A record mostly stands for its own series of concentrations, which the source does not state; a value can be the end of its range.

Columns and labels:
Test in all cases: inhibition of tumour cell growth, NCI panel, 48 h
[1] = test system: COLO 205 colon
[2] = test system: OVCAR-4 ovarian
[3] = test system: IGROV1 ovarian
[4] = test system: RXF 393 renal
[5] = test system: NCI-H23 lung
[6] = test system: SF-268 CNS
[7] = test system: UACC-257 melanoma
[8] = test system: HOP-92 NSCLC
[9] = test system: MALME-3M melanoma
[10] = test system: NCI-H460 lung
[11] = test system: SNB-75 CNS
[12] = test system: HS 578T breast

| Structure (SMILES) | TGI [1] | TGI [2] | TGI [3] | TGI [4] | TGI [5] | TGI [6] | TGI [7] | TGI [8] | TGI [9] | TGI [10] | TGI [11] | GI50 [12] |
| --- | --- | --- | --- | --- | --- | --- | --- | --- | --- | --- | --- | --- |
| CC(=O)c1cccc(NC2C(N)C(NC(=O)N(C)C)(C(C)O)C(C)(O)C2(O)COC(=O)c2c(C)cccc2O)c1 (configuration not stated) | 112 nM and 1.37 µM | 20.8 nM and 213 nM | 35.2 nM and 473 nM | 8.4 nM and 348 nM | 13.3 nM and 217 nM | 15.5 nM and 1.95 µM | 23 nM and 356 nM | < 1 nM and 330 nM | 2.99 nM and 194 nM | 13.9 nM and 1.03 µM | 17.3 nM and 1.73 µM | – |
| Cc1nc(NC(=O)N2CCC[C@H]2C(N)=O)sc1-c1ccnc(C(C)(C)C(F)(F)F)c1 | – | – | – | – | – | – | – | – | – | – | – | 1.74 µM [sample A, mean of 2 tests] and 137 nM [sample B, 1 test] |
